The source gives no read counts; variants with many changes may rest on few reads.

The results in this text go back to the RNAGym collection of RNA variant scans (doi:10.1093/nar/gkz1192).

Sequences and labels used below:
B1: CPEB3 Ribozyme (parent)
chain: UAACAGGGGGCCACAGCAGAAGCGUUCACGUCGCAGCCCCUGUCAGAUUCUGGUGAAUCUGCGAAUUCUGCUGUAUAUCUC

In the data set the parent is B1. Kind of data set: self-cleavage, relative activity (ratio to wild type); higher = more cleavage; in vitro, sequencing. A digest of the protocol: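 Relative activity compares each variant's cleaved/total read fraction with that of the unmutated ribozyme. To get these fractions, barcoded CPEB3 ribozyme libraries from rounds of error-prone PCR were transcribed with T7 RNA polymerase for 5 hours at 37°C and then given 15 min of DNase I treatment before EDTA was added. The RNAs were reverse transcribed with template switching and sequenced on Illumina, and DNA sequencing linked barcodes to variants. A minimum of 5 reads applied, and three batches were averaged.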
On to A18U A28G U58C, for which the self-cleavage was 0.07. To A18U A21G U60A belongs 0.08; to A18U A21U U67A, 0.2; to A18G U49C U67C, 0.11. To A18G U41C U60C U76C belongs 0.24; to A18U C27U A77G, 0.2; to A18U A35U U41C U66C, 0.15. To A18G U41G A57G U66A belongs 0.08. On to A18U A21G U51C U60C, for which the self-cleavage amounted to 0.2.

Consider A18U C37A C38A U76A U80C, for which the self-cleavage is 0.06. Next, A18G U26C U54C U66A U78C: 0.02; A18G U49C A57G: 0.22. For A18G U49C U60C, the self-cleavage was found to be 0.37.

In the case of A18G U41C U54A A56U U80C, the self-cleavage was 0.48.

As for A18G U41A A57U, the self-cleavage amounted to 0.07. Next, A18U A45G U48C U66C: 0.09; A18U A35G U41C A45U U69A: 1.24; A18G U41C U58C A64G U67A A75G: 0.1. Next, A18G U26A U74C: 0.87; A18U A45G A57G: 0.19. To A18U A20G A28G U49C U74A belongs 0.04. Take A18U A21G A35U C40G U43C: the self-cleavage turned out to be 0.05.

Take A18G U51A U60C U66C: the self-cleavage is 0.29. Next, A18U C38U U67C C71U: 0.14; A18G U25C C71G U76C: 0.02; A18U A20U U26C A28G U60C: 0.04. Next, A18G U41C U43A U48C U51A U74G: 0.42; A18G U69C U78C: 1.15; A18G U51A U60A U67G: 0.21. Next, A18U A35G A64G A65G U74G: 0.19. As for A18G U51A A65G U74A, the self-cleavage was found to be 0.41. As for A18U A28U U43C A47G U67A U72C A75U, the self-cleavage was 0.16. To A18G U76C U80G belongs 1.11; to A18U C27A A45U U66C, 0.29; to A18U A56G U72C, 0.21. As to A18G U51A U72A, the self-cleavage came to 0.32. With A18G U25C A28U U41A C81U, the self-cleavage was 0.08.

Consider A18U A20G U25C U41C, for which the self-cleavage amounted to 0.04. Regarding A18G U51C A65U U69C, the self-cleavage was 0.16. To A18G U78A U80A belongs 1.04; to A18U A21U U25C, 0.1. Consider A18G U31G U43C A56G U58C U74A, for which the self-cleavage amounted to 0.21.

As for A18U A20G U67A, the self-cleavage came to 0.31. As for A18U A28G A64U U72A U80C, the self-cleavage turned out to be 0.15. To A18G U41C U49C belongs 0.16; to A18G U51A A57G U76C, 0.25.

For the variant A18G U25C C32U U49C U78C, the self-cleavage came to 0.07.

Take A18U A47G C50A A64C C81U: the self-cleavage was 0.14. With A18G U26A U43A A56G C79A, the self-cleavage came out at 0.24. To A18U A47G A64G belongs 0.15; to A18G U76C U78A, 0.53; to A18G U26C U78C, 0.13. To A18G U60A U66C belongs 0.29; to A18U A47G U80C, 0.63.

As to A18G U51A A77U, the self-cleavage was determined as 0.79. Take A18G U25C U31C: the self-cleavage turned out to be 0.21.

Take A18U C37A U43G U60A: the self-cleavage is 0.05. In the case of A18G U26A U51A A57G, the self-cleavage stood at 0.19. To A18U A21G U74C belongs 0.25; to A18G U31C G52C U66C U69C, 0.11; to A18U A21G A28G A45U, 0.05. To A18U A21G U31C U41A U49G G53U U60G belongs 0.15. Next, A18U A65G U78C: 0.28; A18U A20G A28G C32A: 0.14. Turning to A18G U48C A64G, the self-cleavage was found to be 0.21. Next, A18G U26C U72C: 0.35; A18U A21G U54A A65G: 0.16; A18G U26C U58A: 0.14.

Regarding A18U A21G G30A, the self-cleavage turned out to be 0.05.

In the case of A18G U67A U80C, the self-cleavage amounted to 0.25.

On to A18U C32G U69A, for which the self-cleavage came to 0.07. Next, A18U C23A A35G U49A U58A U72A: 0.05; A18G U48C A57G: 0.79.

Turning to A18G U48C U58C, the self-cleavage was 0.29.

In the case of A18G U31C A77G U80C, the self-cleavage was determined as 0.26.

Consider A18U A45U U72C U80C, for which the self-cleavage was found to be 0.35. Next, A18G U25C A45C: 0.39. To A18U A28G G33A U51C U60A belongs 0.19; to A18G U25A U51A, 0.08.

Take A18G U26G A28U A45U: the self-cleavage is 0.06. To A18U A57G G61U U78A belongs 0.15; to A18G U41A U72C U80A, 0.25; to A18U A35G U60C, 0.24.

Turning to A18G U25C U26C U72C, the self-cleavage was 0.15. To A18U A20G U25C U58A belongs 0.2. To A18G U60A G63A U69A U76C belongs 0.3; to A18G U51A U66C, 0.25. Next, A18G U69C U74C: 1.36; A18G U26A A28G U43A U60C: 0.11. As for A18G U25C U31C U41C U60C U78A, the self-cleavage worked out at 0.25. To A18U C23U A45C U48C G70U U76A U78C belongs 0.05; to A18G U25C U48C U76A, 0.08. Turning to A18G U60A C68U, the self-cleavage was determined as 0.23. To A18U A35U U43C U49C belongs 0.05.

On to A18U A28U U76G, for which the self-cleavage is 0.43. Turning to A18G U25C U43C, the self-cleavage worked out at 0.28. On to A18G U31C U74A, for which the self-cleavage was found to be 0.36. Take A18G U26G A35G U43C C59A U67C: the self-cleavage was 0.16. For A18U A47G U60C C62U, the self-cleavage came to 0.09. To A18U A28U G36A A64U A65G belongs 0.06. As for A18G U41C C50G C68U, the self-cleavage was found to be 0.14. Next, A18U A28G U31A C39U G53U: 0.07. In the case of A18G U54A U60A, the self-cleavage stood at 0.17.

On to A18G U26C A45U, for which the self-cleavage came to 0.27.

Turning to A18G U31C U41A, the self-cleavage is 0.34.

Take A18U A28G U43C A45U A64G U72G: the self-cleavage was 0.05. To A18G U48C U78C belongs 0.39; to A18U A47U U49C A77C, 0.09.

On to A18U C23A G33A U60A, for which the self-cleavage came to 0.18. To A18G U58C A75G U76C belongs 0.13; to A18U A28G A65G U66C, 0.13; to A18G U25C A35G U51A A57G U69C, 0.42.

Take A18G U54C U58C U69G U72C C79U: the self-cleavage turned out to be 0.06.

Turning to A18G U31C U43G, the self-cleavage is 0.07. Consider A18U C32U U67A, for which the self-cleavage was found to be 0.31.

As to A18U A56G U76C, the self-cleavage was 0.18. Next, A18U A35U U41C A56U A64U U67A: 0.1. Next, A18G U51A A57U U72A U78C: 0.1. Next, A18G U41A A56G: 0.31; A18U C29U G52A U58C U72A U76C: 0.1.

As for A18G U43C U51A, the self-cleavage was 0.39.

With A18G U26C C29A U41C U43C U49A A56U, the self-cleavage was determined as 0.07.

As to A18G U31A U72C A75U, the self-cleavage was 0.54. To A18U A21G A35G U54C U74C U78C belongs 0.81; to A18G U26C U43C, 0.47; to A18G U26C U43G, 0.11. To A18G U25C U26C belongs 0.31.

For the variant A18G U41C U43C C50U, the self-cleavage was determined as 0.31. Consider A18G U49A U72C U78C, for which the self-cleavage came out at 0.3. For A18U A20G U31G U60C, the self-cleavage was 0.19. Turning to A18U C23U G30A U31C U54C G55U, the self-cleavage amounted to 0.05. Next, A18G U26C U76C: 0.2; A18G U31A A35G U54C U78C: 0.32; A18U A21G U67C: 0.16. To A18U A21G U67A belongs 0.19.

As for A18G U48C U66C, the self-cleavage turned out to be 0.23. Next, A18U A20U U25A U43A U72C: 0.07.

Regarding A18G U41A A64G U74A, the self-cleavage stood at 0.08. Regarding A18G U26C A57G, the self-cleavage turned out to be 0.31. As for A18G U74C U80C, the self-cleavage turned out to be 0.91.

For A18G U26C U60C U69C U72A, the self-cleavage amounted to 0.27.

As for A18G U41A U58C, the self-cleavage came out at 0.09. Next, A18G U25C A64U: 0.17; A18G U48C U60C: 0.06; A18U A28G G73A: 0.42.

Consider A18G U58C U60C U69G, for which the self-cleavage came to 0.21. To A18G U31C C62U U66A U78C belongs 0.05; to A18U A28U U69C A75G, 0.21. Next, A18U A21G U25C U41C G46A U60C: 0.01; A18G U41C U78C U80A: 0.38; A18G U26C A28U U43C C44U U60C: 0.05. To A18U A20G U60C U76C U78C belongs 0.46; to A18G U58C U78C U80C, 0.19. For A18U A45G U66A U72A U76C U80C, the self-cleavage was 0.11.

A18G U51C A56G: the self-cleavage was 0.25. Next, A18G U60A U72C: 0.19; A18G U51C A64U: 0.42; A18G U49A A56G U60C A64G: 0.11. With A18G U26A U51A C62U A64G, the self-cleavage was 0.22.

For A18U A28G A35G U76A, the self-cleavage is 0.64. To A18U C23U U26C U43A belongs 0.35. Next, A18U A28G A57G U60C: 0.13; A18U A56G A57G A75U: 0.19; A18G U58C U72G: 0.13. As to A18G U49C U51A A64G, the self-cleavage worked out at 0.16. Take A18G U25C A28G: the self-cleavage stood at 0.46. Next, A18G U26C A35G A45C U72A: 0.06.
